According to PubChem BioAssay AID686978 (National Center for Advancing Translational Sciences (NCATS), 2013):
Where “and” joins values, the source holds several entries; their conditions need not be identical. Equal entries are not always repeated. Screen size: about 420,000 compounds; about 64,000 (15%) were called active. The inconclusive results got no clear call from the source; some entries with a clear call stand among them for comparison. Calls follow the shape of the dose curve; as a rule, active = well fitted inhibition curve with a large enough effect; inconclusive = small, poorly fitted or top-dose-only effect; inactive = flat fitted curve, though single readings scatter. Potencies of inconclusive entries are left out as doubtful fits.

assay: qHTS for Inhibitors of human tyrosyl-DNA phosphodiesterase 1 (TDP1): qHTS in cells in absence of CPT; details: DT40 Tdp1-/- hTDP1 cells, no CPT, ATP luminescence, 48 h; activity change, negative = growth inhibition: at 46.2 µM (top of the series) unless noted; also: nearly all actives have a fitted effect of over 55% in size
Outline: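 Growth of hTDP1-complemented DT40 Tdp1-knockout cells is measured by ATP luminescence after at least 48 hr compound exposure at 37 °C, with DMSO substituting for the 20 nM CPT used in the parallel screen.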
% is scaled to controls: 0 for no effect and ±100 for the full control effect; potency is read from the fitted curve at half-maximal effect; tags tell the direction and shape of the fitted curve.

SMILES | Potency | activity change, negative = growth inhibition
CC(=O)c1cccc(-n2nnnc2SCC(=O)Nc2cc(C)on2)c1 | inactive | 
COc1ccc(NC(=O)CSc2nc3ccccc3[nH]2)cc1 | inconclusive [inhibitor, single point] | 
CCOC(=O)C1CCN(C(=O)CSc2n[nH]c(-c3ccccc3)n2)CC1 | inconclusive [inhibitor, partial curve, poor fit] | 
COc1cccc(N2CCN(C(=O)c3ccc(Cl)c(NC4=NC5CS(=O)(=O)CC5S4)c3)CC2)c1 (stereo unspecified) | inactive | 
CC(C)(CO)CNC(=O)CCc1nnc(-c2ccc(-c3ccccc3)cc2)o1 | active: 20.6 µM | 
CCN(CC)S(=O)(=O)c1ccc(C(O)=C(C#N)c2nc3ccccc3n2C)cc1 | active: 13 µM | 
Clc1ccc(-c2csc(=Nc3ccccc3)n2Cc2ccc3c(c2)OCO3)cc1 | active: 10.3 µM | 
CCOC(=O)c1cnc2c(C)c(Cl)ccc2c1N1CCOCC1 | inconclusive [inhibitor, partial curve] | 
Cc1nn(-c2ccccc2)c(N2CCCC2)c1/C=N/NC(=S)Nc1ccc(F)cc1 | active: 8.2 µM | 
COc1ccc(C2CCCN2C(=S)Nc2c(C)cccc2C)cc1OC (stereo unspecified) |  | inconclusive: -33.7% [inhibitor]
Fc1ccccc1Oc1ncnc2c1oc1ccccc12 | inconclusive [inhibitor, single point] | 
Cc1ccc(S(=O)(=O)N(C)CC(=O)N2CCCC2)cc1 | inactive | 
OC1(c2cccnc2)CCN(Cc2ccc3c(c2)CN(Cc2cccc(F)c2F)CCO3)CC1 | inconclusive [inhibitor, single point] | 
Cc1ccc(NC(=O)CSCn2nnc3c(=O)[nH]c(Cc4ccc(F)cc4)nc32)c(C)c1 | inactive | 
O=C1CCC(C(=O)N2CCOCC2)CN1Cc1ccc(Cl)cc1 (stereo unspecified) | inactive | 
COc1ccc(-c2ccc(CCC(=O)O)n2CC2CCCO2)cc1 (stereo unspecified) | inconclusive [inhibitor, single point] | 
CCCCC(CC)CNC(=O)CCCc1nnc2n(CCC)c(=O)c3sccc3n12 (stereo unspecified) | active: 23.1 µM | 
C=CCN=C1CC(C)(C)C(C(=O)OC)C(O)=C1C(=O)CCC (stereo unspecified) | inactive | 
Cc1ccc(CN2C(=O)N/C(=C\c3ccc(N4CCOCC4)cc3)C2=O)cc1 | inconclusive [inhibitor, single point] | 
Cc1ccc(C)c(N2CCN(C(=O)Cn3c(=O)c4cccn4c4ccc(F)cc43)CC2)c1 | inactive | 
CSCc1cc(N(C)C)nc(SCc2ccc(Cl)cc2Cl)n1 | inconclusive [inhibitor, single point] | 
Cc1cc(Cl)ccc1Oc1nc(-c2ccc(F)cc2)ccc1C#N | inactive | 
Cn1c(=O)c2cc(NC(=O)CCc3ccc4c(c3)OCO4)ccc2n1Cc1ccc(F)cc1 | inconclusive [inhibitor, partial curve, poor fit] | 
COc1ccc(-c2cc3ccccc3n2CC(O)CNC(CO)(CO)CO)cc1 (stereo unspecified) | inconclusive [inhibitor, single point] | 

SMILES | Potency | activity change, negative = growth inhibition
Cc1c(CC(=O)NCc2ccccc2)c(=O)oc2c(C)c(O)ccc12 | active: 13 µM | 
C=CCn1c(-c2cccs2)nc2ccccc21 | active: 20.6 µM | 
Cc1ccc(NC(=S)NCc2ccc(S(N)(=O)=O)cc2)cc1Cl | inconclusive [inhibitor, single point] | 
Cc1noc(C)c1C(=O)OCC(=O)NCc1ccccc1 | inactive | 
COc1cc2c(=O)c(C(=O)c3ccc(C)c(C)c3)cn(Cc3ccccc3)c2cc1OC | inconclusive [inhibitor, single point] | 
COc1cc(NC(=O)CN2c3cccc4cccc(c34)S2(=O)=O)cc(OC)c1OC | active: 20.6 µM | 
CCCCC(=O)NC(c1ccccc1)c1ccc2cccnc2c1O (stereo unspecified) | active: 0.731 µM | 
O=C(c1ccc([N+](=O)[O-])o1)N1CCOCC1 | inconclusive [inhibitor, partial curve] | 
O=c1c([N+](=O)[O-])c(N2CCCCCC2)c2ccccc2n1-c1ccccc1 | inconclusive [inhibitor, single point] | 
CC(C)(C)n1ncc2c(=O)n(Cc3cccc(Cl)c3)cnc21 | inconclusive [inhibitor, single point] | 
O=C(Nc1ccccc1F)c1ccc([N+](=O)[O-])s1 | active: 20.6 µM | 
CCN(CC(=O)NCc1ccc(Cl)cc1)C(=O)c1oc2ccccc2c1C | inconclusive [inhibitor, single point] | 
O=C(c1ccccc1)N1CCN(c2ncnc3c(-c4ccccc4)nsc23)CC1 | inconclusive [inhibitor, single point] | 
COc1ccc(N2CCN(C(=O)COC(=O)c3cccc(S(=O)(=O)Nc4ccccc4OC)c3)CC2)cc1 | active: 20.6 µM | 
CC(C)NC(=O)CCCN1C(=O)c2ccccc2Sc2ncccc21 | inactive | 
Cc1cc2c(cc1C)-n1nnnc1C(N(C)Cc1ccccc1)C(=O)N2 (stereo unspecified) | active: 14.6 µM | 
CCOc1cc(C2C(C(=O)OC)=C(C)NC3=C2C(=O)c2ccccc23)c(Br)cc1OC (stereo unspecified) | inconclusive [inhibitor, partial curve] | 
O=C(c1ccc([N+](=O)[O-])cc1)N(Cc1ccccc1)c1ccccn1 | inactive | 
CCn1cc([N+](=O)[O-])c(C(=O)N2N=C3/C(=C/c4cccs4)CCCC3C2c2cccs2)n1 (stereo unspecified) | inconclusive [inhibitor, single point] | 
Clc1ccc(Nc2ccc(NCc3ccccc3)nn2)cc1 | inconclusive [inhibitor, single point] | 
CC(C)c1ccc(S(=O)(=O)N2CCN(C(=S)NCc3ccco3)CC2)cc1 | inconclusive [inhibitor, single point] | 
Cc1coc2c1C(=O)C(=O)c1c-2ccc2c1CCCC2(C)C | active: 4.61 µM and active: 1.3 µM | 
CCn1c(COc2ccc(C)cc2)nnc1SCC(=O)Nc1cc(OC)ccc1OC | active: 20.6 µM | 
Cc1cc(OCC(O)CN2CCc3ccccc3C2)ccc1Cl (stereo unspecified) | inconclusive [inhibitor, single point] | 

SMILES | Potency | activity change, negative = growth inhibition
CN1OC[C@@H]2CN(Cc3ccccc3)[C@H](c3cccc(-c4ccccc4)c3)C[C@@H]21 | inconclusive [inhibitor, single point] | 
COCCNC(=O)C1(C)CCCN(C(=O)c2ccc(C(F)(F)F)cc2)C1 (stereo unspecified) |  | inconclusive: -4.19% [inhibitor]
Cc1ccc(C(=O)Cn2cnc3ccccc3c2=O)cc1C | inconclusive [inhibitor, partial curve] | 
Cn1c2ccccc2c2nnc(SCCOc3ccccc3)nc21 | inconclusive [inhibitor, single point] | 
Cc1ccccc1N1CCN(C2CCCN(C(=O)c3ccccn3)C2)CC1 (stereo unspecified) | active: 25.9 µM | 
Nc1nc(-c2ccccc2)nc(-c2ccccc2O)n1 | inconclusive [inhibitor, single point] | 
O=C(CSc1nc2ccc(Nc3nc(N4CCOCC4)nc(N4CCOCC4)n3)cc2s1)NCc1ccco1 | active: 13 µM | 
O=C(CSCc1ccccc1Cl)NNC(=S)Nc1ccccc1 | inconclusive [inhibitor, single point] | 
COc1ccc(CN2Cc3ccccc3OC(c3ccccc3OC)C2)cc1O (stereo unspecified) | inconclusive [inhibitor, single point] | 
COCc1cc(Sc2ccc(Br)cc2)nc(-c2ccccc2)n1 |  | inconclusive: -31.1% [inhibitor]
O=C(CSc1nnc(SCc2ccc(Cl)cc2)s1)N/N=C/c1c[nH]c2ccccc12 | inconclusive [inhibitor, partial curve] | 
O=[N+]([O-])c1cccc(-c2nnc(-c3ccc4c(c3)OCO4)o2)c1 | inconclusive [inhibitor, partial curve, poor fit] | 
CC(C)(C)c1cc(C(=O)NNc2ccc(OC(F)(F)F)cc2)n(Cc2ccccc2)n1 | inconclusive [inhibitor, single point] | 
Brc1ccc(-c2nc3c4ccccc4ccn3c2Cc2ccccc2)cc1 | active: 8.2 µM | 
O=c1c(-c2ccccc2)nc2cnc(Oc3ccccc3)nc2n1C[C@H]1CCCO1 | inconclusive [inhibitor, single point] | 
CCN(CC)S(=O)(=O)c1ccc(OC)c(NC(=O)OCc2ccccc2)c1 | inconclusive [inhibitor, single point] | 
Cc1nc2cc(NC(=O)[C@@H]3C[C@@H](Sc4ccccn4)CN3Cc3cccc(F)c3)ccc2s1 | inactive | 
O=C(Nc1ccc2c(c1)OCCO2)c1oc2ccccc2c1NC(=O)C1CC1 | inconclusive [inhibitor, single point] | 
CCCCN(CCCNC(=O)CN1N=C(c2ccccc2)CCC1=O)c1ccccc1 | inconclusive [inhibitor, single point] | 
COc1cccc(NC(=O)N(C)C[C@H]2Oc3cc(C#Cc4ccncc4)ccc3S(=O)(=O)N([C@H](C)CO)C[C@H]2C)c1 | active: 23.1 µM | 
COc1ccc(CNC(=O)C[C@H]2C[C@H](C(=O)N3CCOCC3)[C@@]3(CCC4CCCC4)c4[nH]c5ccc(Cl)cc5c4CCN3C2=O)cc1OC | active: 18.4 µM | 
Cc1ccc(Sc2c([N+](=O)[O-])c(=O)n(C)c3ccccc23)cc1 | active: 13 µM | 
Oc1ccc2c(c1)c1ccccc1c1ncccc21 | inconclusive [inhibitor, single point] | 
